Experimental data published in PubChem BioAssay AID624296 (National Center for Advancing Translational Sciences (NCATS), 2012).
The campaign covered roughly 350,000 compounds. About 9,900 (2.8%) were called active. Inconclusive results, whose numbers are uncertain, are shown with a selection of clear calls. Calls come from the whole dose curve; as a rule, active = well fitted activation curve with a large enough effect; inconclusive = small, poorly fitted or top-dose-only effect; inactive = no such curve, though single readings can be large or run the other way. Potencies of inconclusive entries are left out as doubtful fits.

test: A quantitative high throughput screen for small molecules that induce DNA re-replication in MCF 10a normal breast cells.; note: nearly all actives have a fitted effect of over 50% in size; for activity, positive = re-replication: % of control where 0% means no effect; conditions: MCF 10A DNA re-replication, Hoechst nuclear intensity, 48 h; activity, positive = re-replication: at 46.1 µM (top of the series)
Potency is the fitted concentration of half-maximal effect; tags give direction and shape of the fitted curve.

| SMILES | Potency | activity, positive = re-replication |
| --- | --- | --- |
| O=S(=O)(Nc1nc2ccccc2nc1Cl)c1ccc(Cl)cc1 | inconclusive [activator, full curve, poor fit] |  |
| COc1ccccc1CNC(=O)C1CC(c2cccc([N+](=O)[O-])c2)=NO1 (stereo not drawn) | inconclusive [activator, single point] |  |
| O=C(COc1ccccc1[N+](=O)[O-])N/N=C/c1ccc[nH]1 | inconclusive [activator, single point] |  |
| CC(=O)N1CCN(c2ccc(NC(=O)c3ccc4c(c3)OCCO4)cc2)CC1 | inactive |  |
| CCc1ccc(OCC(=O)NNC(=O)C2CCN(c3ncnc4sc(C)c(C)c34)CC2)cc1 | inconclusive [activator, single point] |  |
| COc1ccc(/C=C/C(=O)NCC(c2ccc(F)cc2)N2CCOCC2)cc1OC (stereo not drawn) | inactive |  |
| Cc1c(NC(=O)C(C)N(c2ccccc2)S(C)(=O)=O)c(=O)n(-c2ccccc2)n1C (stereo not drawn) | inconclusive [activator, partial curve, poor fit] |  |
| COc1cc(C2C(C#N)=C(N)N(c3cccnc3)C3=C2C(=O)CC(C)(C)C3)ccc1O (stereo not drawn) | inconclusive [activator, partial curve] |  |
| O=C(N/N=C/c1ccccc1[N+](=O)[O-])c1ccc2c(c1)OCCO2 | inactive |  |
| COc1cccc(-c2nc(SCC(=O)Nc3nc(-c4ccccc4)c(C)s3)[nH]c(=O)c2C#N)c1 | inconclusive [activator, partial curve, poor fit] |  |
| CC(=O)Cc1cc(O)c2ccccc2c1OC(=O)c1ccccc1 | inconclusive [activator, single point] |  |
| Cc1ccnc(NC(=O)c2ccc([N+](=O)[O-])s2)c1 | inconclusive [activator, single point] |  |
| CCOC(=O)CSc1nc2ccccc2c(=O)n1CC1CCCC1 | inconclusive [activator, single point] |  |
| CN(C(=O)c1cccc(NC(=O)Cc2ccc(NC(=O)C3CCCN(C(=O)CCc4ccccc4)C3)cc2)c1)C1CCCC1 (stereo not drawn) | inconclusive [activator, full curve, poor fit] |  |
| COc1cc(C(C)=O)ccc1OCC(=O)Nc1cc(S(=O)(=O)N2CCOCC2)ccc1N1CCCC1 | inconclusive [activator, single point] |  |
| COc1ccc(C(=O)CCN2CCCC(C)C2)cc1 (stereo not drawn) | inconclusive [activator, single point] |  |
| COc1ccccc1NC(=O)C1CCCN(S(=O)(=O)c2cnc[nH]2)C1 (stereo not drawn) | inconclusive [activator, full curve, poor fit] |  |
| CC1CCCCC1Nc1nc2ccc(Cl)cc2n2cnnc12 (stereo not drawn) | inconclusive [activator, single point] |  |
| CC(C)(C)C(=O)N(Cc1ccccc1)c1ccccn1 | inconclusive [activator, single point] |  |
| Cn1c(SCC(=O)N(C2CCCCC2)C2CCCCC2)nnc1-c1cccs1 | active: 13 µM |  |
| CCn1c2ccc(F)cc2c2nc3ccccc3nc21 | inconclusive [activator, single point] |  |
| COc1ccc(N2CCN(C(=O)c3cc4c(C)nc5ccccc5c4o3)CC2)cc1 | inconclusive [activator, single point] |  |
| Cc1cccc(-c2oc3ccccc3c2-c2ccc3c(c2)OCO3)c1 | inconclusive [activator, partial curve, poor fit] |  |

| SMILES | Potency | activity, positive = re-replication |
| --- | --- | --- |
| COc1cc(C2CC(c3c(C)cc(C)[nH]c3=O)=NN2c2ccccc2F)cc(OC)c1OC (stereo not drawn) | active: 23.1 µM |  |
| O=C(O)c1ccc(N/N=C/c2ccc(-c3cccc(Cl)c3)o2)cc1 |  | inconclusive: 423% [activator] |
| Cc1ccc(/C=N/NC(=O)CSc2nc3ccccc3o2)cc1 | inconclusive [activator, partial curve, poor fit] |  |
| CCOC(=O)N1CCc2c(sc(NC(=O)CCS(=O)(=O)c3ccccc3)c2C(N)=O)C1 | inconclusive [activator, single point] |  |
| COc1ccc(/C=N\NC(=O)c2cc3c(ccc4ccccc43)o2)cc1O | active: 11.6 µM |  |
| CCOc1ccc(C(=O)Nc2ccc(CN3CCOCC3)cc2)cc1Br | inconclusive [activator, partial curve, poor fit] |  |
| CN(C(=O)Cn1cnc2sccc2c1=O)C1CCCCC1 | inactive |  |
| N#CC(=C1CCCC1)c1nc(-c2ccc(Cl)cc2)cs1 | inconclusive [activator, single point] |  |
| C(=N\Nc1nc2ccccc2[nH]1)/c1cccc2cccnc12 | inactive |  |
| Cc1ccc(-n2ncc(C#N)c2/N=C/N2CCCCCC2)cc1 | inconclusive [activator, partial curve, poor fit] |  |
| CCNc1nc(C)c2cc(Br)c(=O)n(CC)c2n1 | inconclusive [activator, single point] |  |
| COCCNc1nc(-c2ccc(OC)cc2)c(-c2ccc(OC)cc2)s1 | inconclusive [activator, partial curve] |  |
| CC1=NC(C)(C)CC2CCC(O)C12 (stereo not drawn) | inconclusive [activator, partial curve, poor fit] |  |
| Oc1c(Cl)cc(Cl)cc1/C=N/c1nccs1 | active: 14.6 µM |  |
| Cc1cc(C)n(-c2ccc3cccc(NS(C)(=O)=O)c3n2)n1 | inconclusive [activator, full curve, poor fit] |  |
| Cc1cc(C)n(C(C)Sc2ccccc2)n1 (stereo not drawn) | inactive |  |
| COc1ccc(NC(=O)Nc2cccc3c2O[C@H](CN(C)S(=O)(=O)c2ccccc2)[C@@H](C)CN([C@H](C)CO)C3=O)cc1 | inactive |  |
| COc1ccc(C(CNc2ccc(S(=O)(=O)N3CCN(C)CC3)cc2[N+](=O)[O-])N(C)C)cc1 (stereo not drawn) | inactive |  |
| CCOc1ccc(N(CC(=O)Nc2ccccc2OC)S(=O)(=O)c2ccccc2)cc1 | inconclusive [activator, partial curve, poor fit] |  |
| Cc1oc(-c2ccc(-c3ccccc3)cc2)nc1CN(C)C1CCOC1 (stereo not drawn) | inconclusive [activator, single point] |  |
| Cc1cc2c(cc1C)C(c1ccccc1OC(C)C)CC(=O)N2 (stereo not drawn) | active: 1.46 µM |  |
| Cc1cc(NC(=O)CCS(=O)(=O)c2nc(-c3ccccc3)cc(C(F)(F)F)n2)no1 | active: 5.17 µM |  |
| Cc1ccc(Cn2c(C)cc3c(c2=O)C(c2cccs2)C(C#N)=C(N)O3)cc1 (stereo not drawn) | inconclusive [activator, single point] |  |

| SMILES | Potency | activity, positive = re-replication |
| --- | --- | --- |
| Cc1ccc(N=C2N=C(N)c3ccccc32)cc1C | inconclusive [activator, single point] |  |
| COc1ccc(NC(=S)N/N=C/c2cccn2Cc2ccccc2F)cc1 | inconclusive [activator, single point] |  |
| CN(C)CCCNC(=O)/C=C/c1ccc(OCc2c(F)cccc2Cl)cc1 | active: 23.1 µM |  |
| O=C(Nc1nc(-c2cccc(Br)c2)cs1)Oc1ccccc1 | inconclusive [activator, single point] |  |
| CCOC(=O)c1cnc(N2CCOCC2)[nH]c1=O | inconclusive [activator, partial curve, poor fit] |  |
| CN1C[C@@H]2[C@@H]3C(=O)N(C)C(=O)[C@@H]3[C@](Cc3ccccc3)(C1=O)N2C(=O)c1ccccc1 | inconclusive [activator, single point] |  |
| Cc1cc(NC(=O)CSc2nnc3c(C)cc4c(C)ccc(C)c4n23)no1 | active: 20.6 µM |  |
| Cn1c(=O)[nH]c(=O)c2c1nc(NCCCO)n2CCCc1ccccc1 | inconclusive [activator, single point] |  |
| Cc1cc(Cl)c(S(=O)(=O)N2CCN(c3ccccn3)CC2)cc1OCC(=O)NC1CCCCC1 | inactive |  |
| CC(C)CN(C(=O)Cn1ccccc1=O)C1CCS(=O)(=O)C1 (stereo not drawn) | inactive |  |
| CCc1ccc(/C=C/C(=O)c2ccc(N3CCOCC3)cc2)cc1 | inconclusive [activator, partial curve] |  |
| Cc1cnc(N=Nc2ccccc2)[nH]1 | inconclusive [activator, single point] |  |
| O=C1C=CC(=O)C(CNc2ccc(C(=O)OCc3ccccc3)cc2)=C1 | inconclusive [activator, full curve] |  |
| N=C1/C(=C\c2ccc(Br)o2)C(=O)N=C2SC(CC(=O)N3CCCCC3)=NN12 | inactive |  |
| Cc1ccc(C(=O)NCC(=O)OCC(=O)NC(C)C2CC3CCC2C3)cc1 (stereo not drawn) | inconclusive [activator, partial curve, poor fit] |  |
| COc1cc(COCC(O)CN2C(C)CCCC2C)cc(OC)c1OC (stereo not drawn) | inconclusive [activator, single point] |  |
| Cc1ccn2c(Nc3ccccc3)c(-c3ccccn3)nc2c1 | active: 16.4 µM |  |
| COc1ccc(/C=N/Nc2ccc(C(=O)O)cc2)cc1OC | inactive |  |
| COC(=O)CCCCCCCCCC[N+]1(C)CCCCC1 | inconclusive [activator, partial curve, poor fit] |  |
| N#CC1=C(SCC(=O)NC23CC4CC(CC(C4)C2)C3)NC(=O)C(C#N)C12CCCCC2 (stereo not drawn) | active: 16.4 µM |  |
| COc1ccc(C)cc1NC(=O)CCNC(=O)Cn1ccc2ccccc2c1=O | inactive |  |
| COc1ccc(C(=O)CCS(=O)(=O)c2ccc(C)cc2)cc1 | inconclusive [activator, partial curve, poor fit] |  |
